Laboratory results from the supplement of paper PMC8728848.
The list shows a part of the results.

How the values were obtained:
Experiment in all cases: glycan array binding signal (z-score within array); higher = stronger binding
Settings in all cases: glycan notation: IUPAC condensed, linker removed
[1] = biological target: Fuc(a1-2)[GalNAc(a1-3)]Gal(b1-4)[Fuc(a1-3)]GlcNAc
Summary of the method: (§1)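 The Consortium for Functional Glycomics database supplied 3228 glycan arrays, of which those lacking an available protein sequence were dropped. The binding signal, a within-array Z-score, was averaged across arrays of the same protein sequence and across linkers. Negative scores can be read as non-binding.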

[2] = biological target: Fuc(a1-2)[GalNAc(a1-4)]Gal(b1-4)GlcNAc
Summary of the method: as §1

[3] = biological target: Fuc(a1-2)[GalNAc(b1-3)]Gal
Summary of the method: as §1

[4] = biological target: Fuc(a1-3)GlcNAc
Summary of the method: as §1

[5] = biological target: Fuc(a1-3)[Gal(b1-4)]Glc6S
Summary of the method: as §1

[6] = biological target: Fuc(a1-3)[Gal(b1-4)]GlcNAc
Summary of the method: as §1

[7] = biological target: Fuc(a1-3)[Gal(b1-4)]GlcNAc(b1-2)Man(a1-3)[Fuc(a1-3)[Gal(b1-4)]GlcNAc(b1-2)Man(a1-6)]Man(b1-4)GlcNAc(b1-4)GlcNAc
Summary of the method: as §1

[8] = biological target: Fuc(a1-3)[Gal(b1-4)]GlcNAc(b1-2)Man(a1-6)[Gal(b1-4)GlcNAc(b1-2)Man(a1-3)]Man(b1-4)GlcNAc(b1-4)GlcNAc
Summary of the method: as §1

[9] = biological target: Fuc(a1-3)[Gal(b1-4)]GlcNAc(b1-3)Gal(b1-3)[Fuc(a1-4)]GlcNAc
Summary of the method: as §1

[10] = biological target: Fuc(a1-3)[Gal(b1-4)]GlcNAc(b1-4)Gal(b1-4)[Fuc(a1-3)]GlcNAc
Summary of the method: as §1

[11] = biological target: Fuc(a1-3)[Gal(b1-4)]GlcNAc(b1-4)Gal(b1-4)[Fuc(a1-3)]GlcNAc(b1-4)Gal(b1-4)[Fuc(a1-3)]GlcNAc
Summary of the method: as §1

[12] = biological target: Fuc(a1-3)[Gal(b1-4)]GlcNAc6S
Summary of the method: as §1

[13] = biological target: Fuc(a1-3)[Gal3S(b1-4)]Glc6S
Summary of the method: as §1

[14] = biological target: Fuc(a1-3)[Gal3S(b1-4)]GlcNAc
Summary of the method: as §1

[15] = biological target: Fuc(a1-3)[Gal3S(b1-4)]GlcNAc6S
Summary of the method: as §1

[16] = biological target: Fuc(a1-3)[GalNAc(b1-4)]GlcNAc
Summary of the method: as §1

[17] = biological target: Fuc(a1-4)GlcNAc
Summary of the method: as §1

[18] = biological target: Fuc(b1-3)GlcNAc
Summary of the method: as §1

[19] = biological target: Gal(a1-2)Gal
Summary of the method: as §1

[20] = biological target: Gal(a1-3)Gal
Summary of the method: as §1

[21] = biological target: Gal(a1-3)Gal(b1-3)GlcNAc
Summary of the method: as §1

[22] = biological target: Gal(a1-3)Gal(b1-4)Glc
Summary of the method: as §1

[23] = biological target: Gal(a1-3)Gal(b1-4)GlcNAc
Summary of the method: as §1

[24] = biological target: Gal(a1-3)Gal(b1-4)[Fuc(a1-3)]GlcNAc
Summary of the method: as §1

[25] = biological target: Gal(a1-3)GalNAc
Summary of the method: as §1

[26] = biological target: Gal(a1-3)[Gal(a1-4)]Gal(b1-4)GlcNAc
Summary of the method: as §1

[27] = biological target: Gal(a1-4)Gal(b1-4)Glc
Summary of the method: as §1

[28] = biological target: Gal(a1-4)Gal(b1-4)GlcNAc
Summary of the method: as §1

[29] = biological target: Gal(a1-4)GlcNAc
Summary of the method: as §1

[30] = biological target: Gal(a1-6)Glc
Summary of the method: as §1

[31] = biological target: Gal(b1-2)Gal
Summary of the method: as §1

[32] = biological target: Gal(b1-3)Gal
Summary of the method: as §1

[33] = biological target: Gal(b1-3)Gal(b1-4)GlcNAc
Summary of the method: as §1

[34] = biological target: Gal(b1-3)GalNAc
Summary of the method: as §1

[35] = biological target: Gal(b1-3)GalNAc(b1-3)Gal(a1-4)Gal(b1-4)Glc
Summary of the method: as §1

[36] = biological target: Gal(b1-3)GalNAc(b1-4)Gal(b1-4)Glc
Summary of the method: as §1

[37] = biological target: Gal(b1-3)GalNAc(b1-4)[Neu5Ac(a2-3)]Gal(b1-4)Glc
Summary of the method: as §1

[38] = biological target: Gal(b1-3)GlcNAc
Summary of the method: as §1

[39] = biological target: Gal(b1-3)GlcNAc(b1-2)Man(a1-3)[Gal(b1-3)GlcNAc(b1-2)Man(a1-6)]Man(b1-4)GlcNAc(b1-4)GlcNAc
Summary of the method: as §1

[40] = biological target: Gal(b1-3)GlcNAc(b1-3)Gal(b1-3)GlcNAc
Summary of the method: as §1

[41] = biological target: Gal(b1-3)GlcNAc(b1-3)Gal(b1-4)Glc
Summary of the method: as §1

[42] = biological target: Gal(b1-3)GlcNAc(b1-3)Gal(b1-4)GlcNAc
Summary of the method: as §1

[43] = biological target: Gal(b1-3)[Fuc(a1-4)]GlcNAc
Summary of the method: as §1

[44] = biological target: Gal(b1-3)[Fuc(a1-4)]GlcNAc(b1-3)Gal(b1-3)[Fuc(a1-4)]GlcNAc
Summary of the method: as §1

[45] = biological target: Gal(b1-3)[Fuc(a1-4)]GlcNAc(b1-3)Gal(b1-4)GlcNAc
Summary of the method: as §1

B1: GH95CBM (Clostridium perfringens) (protein)
chain: EKVAVETSVYLSELEWKSASTGYGEIQKDASCDGNTITLKGENGEKVSYDKGIGTHAHSEIVYSLEGLDYYDYFETFVGVDQEMAGTVASISFEVYLDNEKVFDSGLMTGDTTQKHVKVPIAGKNTLKLVVKDGGDSIGSDHGSFGDAKLT
glycan array binding signal (z-score) [1]: -0.285 | glycan array binding signal (z-score) [2]: -0.158 | glycan array binding signal (z-score) [3]: -0.089 | glycan array binding signal (z-score) [4]: 0.521 | glycan array binding signal (z-score) [5]: -0.278 | glycan array binding signal (z-score) [6]: -0.32 | glycan array binding signal (z-score) [7]: -0.268 | glycan array binding signal (z-score) [8]: -0.317 | glycan array binding signal (z-score) [9]: -0.299 | glycan array binding signal (z-score) [10]: -0.262 | glycan array binding signal (z-score) [11]: -0.323 | glycan array binding signal (z-score) [12]: -0.332 | glycan array binding signal (z-score) [13]: 0.313 | glycan array binding signal (z-score) [14]: -0.285 | glycan array binding signal (z-score) [15]: -0.178 | glycan array binding signal (z-score) [16]: 0.496 | glycan array binding signal (z-score) [17]: -0.353 | glycan array binding signal (z-score) [18]: -0.367 | glycan array binding signal (z-score) [19]: -0.294 | glycan array binding signal (z-score) [20]: -0.232 | glycan array binding signal (z-score) [21]: -0.324 | glycan array binding signal (z-score) [22]: -0.251 | glycan array binding signal (z-score) [23]: -0.375 | glycan array binding signal (z-score) [24]: 4.88 | glycan array binding signal (z-score) [25]: 1.84 | glycan array binding signal (z-score) [26]: -0.183 | glycan array binding signal (z-score) [27]: -0.347 | glycan array binding signal (z-score) [28]: -0.341 | glycan array binding signal (z-score) [29]: -0.285 | glycan array binding signal (z-score) [30]: -0.357 | glycan array binding signal (z-score) [31]: 2.38 | glycan array binding signal (z-score) [32]: -0.363 | glycan array binding signal (z-score) [33]: -0.308 | glycan array binding signal (z-score) [34]: 0.501 | glycan array binding signal (z-score) [35]: 4.91 | glycan array binding signal (z-score) [36]: -0.222 | glycan array binding signal (z-score) [37]: -0.251 | glycan array binding signal (z-score) [38]: -0.277 | glycan array binding signal (z-score) [39]: -0.333 | glycan array binding signal (z-score) [40]: -0.334 | glycan array binding signal (z-score) [41]: 0.626 | glycan array binding signal (z-score) [42]: -0.315 | glycan array binding signal (z-score) [43]: -0.347 | glycan array binding signal (z-score) [44]: -0.312 | glycan array binding signal (z-score) [45]: -0.302
